# Some of the results follow.
# Tested on: T1, Caupolican (Caup) homeodomain DNA-binding domain
# T1 sequence: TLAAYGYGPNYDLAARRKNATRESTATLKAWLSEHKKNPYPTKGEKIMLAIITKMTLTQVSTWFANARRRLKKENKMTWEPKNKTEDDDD
# Assay: PBM E-score (8-mer, recovered from the published 9-mer minima) (E-score (dimensionless, -0.5 to 0.5)); Drosophila protein; higher = stronger relative binding preference, active = 0.31 or more
# Outline: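 Caup's homeodomain DNA-binding domain (residues 214-303) was made by in vitro transcription and translation and applied at 100 nM to custom-designed protein binding microarrays. Each value is an enrichment score that gives relative binding preference for a short DNA word, with higher meaning stronger. The 8-mer values were recovered from published 9-mer scores, each of which was the minimum of its two constituent 8-mer scores. A cutoff of 0.31 marks candidate sites.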
row,Sequence,PBM E-score
1,AAATAGGA,inactive: 0.0505
2,CGCAGCCG,inactive: -0.267
3,CCGTTCTC,inactive: -0.0675
4,ATCCAATA,inactive: 0.182
5,AGCTACCG,inactive: -0.148
6,AGTGTACG,inactive: 0.152
7,ACGCCACT,inactive: -0.0388
8,CAGAACTA,inactive: 0.051
9,CCCAACCC,inactive: -0.138
10,TAAGCGGA,inactive: -0.0236
11,CGTTAGCC,inactive: -0.0828
12,TACTCTCA,inactive: 0.0596
13,CGAAGCGC,inactive: -0.16
14,GAAAGGAC,inactive: 0.00953
15,GTTGAGCA,inactive: 0.0452
16,GACAGCTC,inactive: -0.0794
17,GATTGTGA,inactive: 0.0839
18,ATAGTTAA,inactive: 0.158
19,CGCCGGTC,inactive: -0.248
20,CCGAGCCC,inactive: -0.26
21,TGGTCTAA,inactive: -0.0361
22,CTACTGTA,inactive: 0.182
23,CCCTACCA,inactive: -0.0656
24,AGTTTGCC,inactive: -0.0319
25,AAAATTGA,inactive: -0.0569

row,Sequence,PBM E-score
1,CGAAAGGC,inactive: -0.147
2,GCGGCAGA,inactive: -0.239
3,GACAGGCC,inactive: 0.0111
4,CGAAGGCG,inactive: -0.203
5,GTGTCATA,inactive: 0.292
6,AGAGGACA,inactive: 0.114
7,ATCTAACC,inactive: 0.102
8,CCCAACGG,inactive: -0.185
9,AACCGCAT,inactive: 0.0384
10,ATCGCGAC,inactive: 0.00275
11,AGTTCGCA,inactive: -0.0631
12,ACCCGTTC,inactive: -0.0179
13,AAGCCACC,inactive: -0.185
14,CCTGAGAG,inactive: -0.199
15,ATGACAAA,inactive: 0.248
16,CGAGCTAG,inactive: -0.12
17,CGTTTAAC,inactive: 0.111
18,ACTAAACT,inactive: 0.0396
19,AATTGGCT,inactive: -0.0217
20,GCATTAGA,inactive: 0.0301
21,CCCTGCAC,inactive: -0.0942
22,GCGCCGAC,inactive: -0.199
23,AACTTGAC,inactive: 0.11
24,CTACGGAA,inactive: -0.0238
25,CGGAGCTA,inactive: -0.128

row,Sequence,PBM E-score
1,AGGTGGCA,inactive: -0.141
2,CCGGTGAA,inactive: -0.0774
3,TATGCCAA,inactive: 0.0609
4,AGTGGAGC,inactive: -0.0581
5,ATAAATCA,inactive: 0.121
6,AAAGCCTC,inactive: -0.0904
7,AAGGTCGT,inactive: -0.0388
8,AGGGAGTC,inactive: -0.0759
9,GATACCGA,inactive: 0.0217
10,GAGAGTAC,inactive: 0.0707
11,GGATACCA,inactive: 0.0236
12,TCCCATAA,inactive: 0.0278
13,AACACAGT,≥ 0.277
14,TACCTCGA,inactive: 0.0358
15,CAGTAACG,inactive: -0.0444
16,GCAGAGGA,inactive: -0.0494
17,ACAGTGGC,inactive: -0.0915
18,GGGCTGGA,inactive: -0.213
19,CGTTCAAG,inactive: -0.0687
20,AAACTCGC,inactive: -0.0492
21,AGCCCCAC,inactive: -0.21
22,AAGAGATC,inactive: -0.00653
23,CATCTACG,inactive: 0.0585
24,AGGTGCTC,inactive: -0.109
25,ATTTACCA,inactive: 0.151

row,Sequence,PBM E-score
1,ACAGTTGC,inactive: 0.0312
2,CCGCTTCC,inactive: -0.172
3,CCACTTAA,inactive: -0.0517
4,GCCGCCAC,inactive: -0.268
5,AACCGGAG,inactive: -0.0752
6,CTGCAAAG,inactive: -0.169
7,GGGGAGCA,inactive: -0.143
8,AGCATCCA,inactive: -0.0364
9,GCAAATCC,inactive: 0.00535
10,ATGGTTAG,inactive: 0.134
11,CTCCACAC,inactive: -0.111
12,CTATCCTA,inactive: -0.0751
13,CGGTAATC,inactive: 0.00406
14,CGGCAACG,inactive: -0.192
15,GGCTAGAC,inactive: -0.11
16,CTGAAGTA,inactive: -0.0424
17,ACAACGTG,inactive: 0.273
18,CAGCTAAG,inactive: -0.116
19,CTGCCCAG,inactive: -0.259
20,CCAGTTAG,inactive: -0.0607
21,CTGCTTAA,inactive: -0.0935
22,ATTTGGCA,inactive: -0.00352
23,GAGACTCA,inactive: -0.0625
24,CCACCGCC,inactive: -0.244
25,CTCGAACA,inactive: 0.166

row,Sequence,PBM E-score
1,CAATTGAC,inactive: 0.115
2,AGTTCTAC,inactive: 0.0527
3,ACCGACCG,inactive: -0.0972
4,CCGTAGCC,inactive: -0.222
5,ACTTACTG,inactive: 0.0395
6,CCATTGCA,inactive: 0.0848
7,ATTTCTTC,inactive: -0.0192
8,AGGGGCTG,inactive: -0.105
9,ACTCATGG,inactive: 0.0295
10,GCCTGTTA,inactive: 0.159
11,GGCAACCA,inactive: -0.0801
12,AGATGAAG,inactive: -0.0735
13,TGTGCCAA,inactive: 0.0559
14,GCCAAACA,inactive: 0.122
15,GCCGCACC,inactive: -0.211
16,CCTGACAG,inactive: 0.0999
17,CACAATAA,inactive: 0.0841
18,CCAAGCTC,inactive: -0.0725
19,CAGTATTC,inactive: 0.0649
20,CAATCGGC,inactive: -0.0316
21,ACAAATTC,inactive: 0.178
22,AGTCAACT,inactive: 0.063
23,CTAGTGCA,inactive: -0.031
24,CTGTACGC,inactive: 0.037
25,GCCGAAAA,inactive: -0.0104

row,Sequence,PBM E-score
1,AGGGCTCA,≥ -0.0983
2,CTCCCGTC,inactive: -0.0757
3,ACAGTACT,inactive: 0.18
4,AATCGGGA,inactive: 0.00503
5,CTATCGAC,inactive: -0.0977
6,GCAAAGCA,inactive: -0.0364
7,GCTCGGCC,inactive: -0.274
8,AAATACCC,inactive: -0.0207
9,TATGGCAA,inactive: -0.0466
10,GACGGCTC,inactive: -0.149
11,CTGGAGCA,inactive: -0.058
12,CCTATCTC,inactive: -0.132
13,CTTCTGCC,inactive: -0.138
14,GTTTGGCA,inactive: -0.0334
15,AAGGTTTG,inactive: 0.0466
16,AGCGACAA,inactive: 0.228
17,GCCGTCAA,inactive: -0.0776
18,CCTGATCC,inactive: -0.0521
19,CGAGCTTA,inactive: -0.112
20,AAGCTTGT,inactive: 0.282
21,AAGTTCGA,inactive: 0.0677
22,CATACAGA,inactive: 0.151
23,ATGGAGGC,inactive: -0.149
24,CTACGTAA,inactive: -0.0257
25,ATGCCTGC,inactive: -0.036

row,Sequence,PBM E-score
1,AGGGACTC,inactive: -0.146
2,ACCAAGTG,inactive: -0.0646
3,AGGGCGGA,inactive: -0.272
4,TAACGATA,inactive: 0.161
5,ATGTCGTA,active: 0.337
6,AGAACCTG,inactive: 0.0622
7,GATTAAAC,inactive: 0.0623
8,CGTGTCCA,inactive: 0.227
9,TATGCCGA,≥ 0.0283
10,AATGGTGT,inactive: 0.223
11,CCTGTCCC,inactive: 0.0153
12,ATATTTCC,inactive: 0.0539
13,CAGCTCAG,inactive: -0.0744
14,GTCGGCGA,inactive: -0.188
15,TGATCGAA,inactive: 0.0508
16,ATGGCATG,inactive: 0.128
17,AGCTAAAA,inactive: 0.0384
18,ATTCGAAG,inactive: -0.0612
19,TCTTTACA,inactive: 0.213
20,CGCTCCAC,inactive: -0.181
21,CATTTTAG,inactive: 0.0311
22,ACAGCCTC,inactive: -0.0694
23,GCACCATA,inactive: 0.061
24,CTGCCGTA,inactive: -0.165
25,TATCACAA,inactive: 0.208

row,Sequence,PBM E-score
1,CTTTTGTC,inactive: 0.0876
2,CCCTTCAC,inactive: -0.115
3,GGTTCGTA,inactive: -0.0336
4,GGTACTCA,inactive: 0.0276
5,ATAGCGAT,inactive: 0.0345
6,AAGGCTGT,inactive: -0.0057
7,CGCGGTAA,inactive: -0.00355
8,AGGGCCTC,inactive: -0.199
9,GGTCGAAA,inactive: -0.106
10,GACCCTAC,inactive: -0.138
11,ATCATCAA,inactive: 0.062
12,ATTCTCTC,inactive: -0.0907
13,TCGATGAA,inactive: 0.046
14,TAGCGGGA,inactive: -0.169
15,GCTACAAC,inactive: 0.169
16,CGCTCGTA,inactive: 0.0346
17,CTACAATA,inactive: 0.228
18,TAACTGCA,inactive: 0.0888
19,AAGTGAGA,inactive: -0.0758
20,CCGGAAGC,inactive: -0.199
21,ACAGTAAG,inactive: 0.0415
22,ATTCAACC,inactive: 0.0253
23,TAAGTGGA,inactive: 0.0584
24,AGTCGCTG,inactive: -0.0199
25,GTCAAGCA,inactive: -0.0651

row,Sequence,PBM E-score
1,AGTTAAAT,inactive: 0.11
2,GTCCCTCA,inactive: -0.126
3,CGGTCTCA,inactive: -0.0553
4,GGGCATGA,inactive: -0.0903
5,CCCCGATC,inactive: -0.274
6,CTATATTC,inactive: 0.0189
7,CTAATGGA,inactive: -0.0695
8,ACGAGGCT,inactive: -0.0132
9,GTTCCGAA,inactive: 0.0909
10,AGTACACT,inactive: 0.181
11,TCAGCAGA,inactive: -0.0495
12,AACTGGTA,inactive: 0.0223
13,TTTCAAAA,≥ 0.132
14,TAGGGGGA,inactive: -0.243
15,AACACCAG,inactive: 0.137
16,CCGAGCAG,inactive: -0.0223
17,ATTAACCA,inactive: 0.14
18,CCTCCGGA,inactive: -0.172
19,GTGTTTTA,inactive: 0.213
20,AACGAGGT,inactive: 0.0473
21,AGGGGGAC,inactive: -0.287

# — the supplement of paper PMC3724861
